Reference: patent US10525103B2, “Combined use of a vector encoding a modified receptor and its exogenous agonist in the treatment of seizures” (UCL BUSINESS LTD, priority 2014, dated 2020)
Where two headings read alike, the source gives them in different places.

Tested on: rats expressing ArchT instead of hM4Di
Type: in vivo, rat
Details: ArchT virus

C[N+]1([O-])CCN(C2=Nc3cc(Cl)ccc3Nc3ccccc32)CC1 [CNO, clozapine-N-oxide]
three measures of seizure severity, vehicle vs CNO trials (intracortical picrotoxin): no significant differences | three measures of seizure severity, vehicle vs CNO trials (intracortical pilocarpine): no significant differences
